In the supplement of paper PMC8728848:
The list shows a part of the results.

How the values were obtained:
Test in all cases: glycan array binding signal (z-score within array); higher = stronger binding
Conditions in all cases: glycan notation: IUPAC condensed, linker removed
[1] = target: Neu5Ac(a2-3)Gal(b1-4)GlcNAc(b1-3)Gal(b1-4)GlcNAc(b1-3)Gal(b1-4)GlcNAc
Procedure, shortened: (§1)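 The binding signal is a Z-score computed within each array and averaged over linkers. Arrays of the same protein sequence at different concentrations or buffers were also averaged together. Data originate from 3228 arrays in the Consortium for Functional Glycomics database, kept only where the protein sequence was available.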

[2] = target: Neu5Ac(a2-3)Gal(b1-4)GlcNAc(b1-3)Gal(b1-4)GlcNAc(b1-3)Gal(b1-4)GlcNAc(b1-2)Man(a1-3)[Neu5Ac(a2-3)Gal(b1-4)GlcNAc(b1-3)Gal(b1-4)GlcNAc(b1-3)Gal(b1-4)GlcNAc(b1-2)Man(a1-6)]GalNAc
Procedure, shortened: as §1

[3] = target: Neu5Ac(a2-3)Gal(b1-4)GlcNAc(b1-3)Gal(b1-4)GlcNAc(b1-3)GalNAc
Procedure, shortened: as §1

[4] = target: Neu5Ac(a2-3)Gal(b1-4)GlcNAc(b1-3)Gal(b1-4)GlcNAc(b1-3)[Neu5Ac(a2-3)Gal(b1-4)GlcNAc(b1-3)Gal(b1-4)GlcNAc(b1-6)]GalNAc
Procedure, shortened: as §1

[5] = target: Neu5Ac(a2-3)Gal(b1-4)GlcNAc(b1-3)Gal(b1-4)GlcNAc(b1-6)[Gal(b1-3)]GalNAc
Procedure, shortened: as §1

[6] = target: Neu5Ac(a2-3)Gal(b1-4)GlcNAc(b1-3)Gal(b1-4)[Fuc(a1-3)]GlcNAc
Procedure, shortened: as §1

[7] = target: Neu5Ac(a2-3)Gal(b1-4)GlcNAc(b1-3)GalNAc
Procedure, shortened: as §1

[8] = target: Neu5Ac(a2-3)Gal(b1-4)GlcNAc(b1-3)[Neu5Ac(a2-3)Gal(b1-4)GlcNAc(b1-6)]GalNAc
Procedure, shortened: as §1

[9] = target: Neu5Ac(a2-3)Gal(b1-4)GlcNAc(b1-6)GalNAc
Procedure, shortened: as §1

[10] = target: Neu5Ac(a2-3)Gal(b1-4)GlcNAc(b1-6)[Gal(b1-3)]GalNAc
Procedure, shortened: as §1

[11] = target: Neu5Ac(a2-3)Gal(b1-4)GlcNAc(b1-6)[Neu5Ac(a2-3)Gal(b1-3)]GalNAc
Procedure, shortened: as §1

[12] = target: Neu5Ac(a2-3)Gal(b1-4)GlcNAc6S
Procedure, shortened: as §1

[13] = target: Neu5Ac(a2-3)Gal(b1-4)[Fuc(a1-3)]GlcNAc
Procedure, shortened: as §1

[14] = target: Neu5Ac(a2-3)Gal(b1-4)[Fuc(a1-3)]GlcNAc(b1-2)Man
Procedure, shortened: as §1

[15] = target: Neu5Ac(a2-3)Gal(b1-4)[Fuc(a1-3)]GlcNAc(b1-3)Gal
Procedure, shortened: as §1

[16] = target: Neu5Ac(a2-3)Gal(b1-4)[Fuc(a1-3)]GlcNAc(b1-3)Gal(b1-4)GlcNAc
Procedure, shortened: as §1

[17] = target: Neu5Ac(a2-3)Gal(b1-4)[Fuc(a1-3)]GlcNAc(b1-3)Gal(b1-4)[Fuc(a1-3)]GlcNAc(b1-3)Gal(b1-4)[Fuc(a1-3)]GlcNAc
Procedure, shortened: as §1

[18] = target: Neu5Ac(a2-3)Gal(b1-4)[Fuc(a1-3)]GlcNAc(b1-3)GalNAc
Procedure, shortened: as §1

[19] = target: Neu5Ac(a2-3)Gal(b1-4)[Fuc(a1-3)]GlcNAc(b1-6)[Gal(b1-3)]GalNAc
Procedure, shortened: as §1

[20] = target: Neu5Ac(a2-3)Gal(b1-4)[Fuc(a1-3)]GlcNAc(b1-6)[Neu5Ac(a2-3)Gal(b1-3)]GalNAc
Procedure, shortened: as §1

[21] = target: Neu5Ac(a2-3)Gal(b1-4)[Fuc(a1-3)]GlcNAc6S
Procedure, shortened: as §1

[22] = target: Neu5Ac(a2-3)Gal6S(b1-4)GlcNAc
Procedure, shortened: as §1

[23] = target: Neu5Ac(a2-3)Gal6S(b1-4)[Fuc(a1-3)]GlcNAc
Procedure, shortened: as §1

[24] = target: Neu5Ac(a2-3)GalNAc
Procedure, shortened: as §1

[25] = target: Neu5Ac(a2-3)GalNAc(b1-4)GlcNAc
Procedure, shortened: as §1

[26] = target: Neu5Ac(a2-3)[GalNAc(b1-4)]Gal(b1-4)Glc
Procedure, shortened: as §1

[27] = target: Neu5Ac(a2-3)[GalNAc(b1-4)]Gal(b1-4)GlcNAc
Procedure, shortened: as §1

[28] = target: Neu5Ac(a2-3)[GalNAc(b1-4)]Gal(b1-4)GlcNAc(b1-3)GalNAc
Procedure, shortened: as §1

[29] = target: Neu5Ac(a2-3)[Neu5Ac(a2-6)]GalNAc
Procedure, shortened: as §1

[30] = target: Neu5Ac(a2-6)Gal
Procedure, shortened: as §1

[31] = target: Neu5Ac(a2-6)Gal(b1-3)GlcNAc(b1-3)[Gal(b1-4)GlcNAc(b1-6)]Gal(b1-4)Glc
Procedure, shortened: as §1

[32] = target: Neu5Ac(a2-6)Gal(b1-4)Glc
Procedure, shortened: as §1

[33] = target: Neu5Ac(a2-6)Gal(b1-4)GlcNAc
Procedure, shortened: as §1

[34] = target: Neu5Ac(a2-6)Gal(b1-4)GlcNAc(b1-2)Man
Procedure, shortened: as §1

[35] = target: Neu5Ac(a2-6)Gal(b1-4)GlcNAc(b1-2)Man(a1-3)Man(b1-4)GlcNAc(b1-4)GlcNAc
Procedure, shortened: as §1

[36] = target: Neu5Ac(a2-6)Gal(b1-4)GlcNAc(b1-2)Man(a1-3)[Gal(b1-4)GlcNAc(b1-2)Man(a1-6)]Man(b1-4)GlcNAc(b1-4)GlcNAc
Procedure, shortened: as §1

[37] = target: Neu5Ac(a2-6)Gal(b1-4)GlcNAc(b1-2)Man(a1-3)[GlcNAc(b1-2)Man(a1-6)]Man(b1-4)GlcNAc(b1-4)GlcNAc
Procedure, shortened: as §1

[38] = target: Neu5Ac(a2-6)Gal(b1-4)GlcNAc(b1-2)Man(a1-3)[GlcNAc(b1-4)][Neu5Ac(a2-6)Gal(b1-4)GlcNAc(b1-2)Man(a1-6)]Man(b1-4)GlcNAc(b1-4)GlcNAc
Procedure, shortened: as §1

B1: SP16663B-bot-321-25-321 (Bacteroides ovatus) (protein)
chain: DDDDEVTMNSKFYLSTKVFPVDSYEASLSVILKDNSVVVNELQPNYRFVACATERLSKDVKITADSDDNLVSAYNKANDTEYNILPAENYSFTNKTVTIENGESVSGDSIKIELLNVGSLTTEGGYLLPVTISSIEGNNLDALSSNRGVVYLKIQNIHVNVESGQPAEGTLIADRSGWTVKVAPTTRGDAKNLIDGTNSDVARDGGAEYWLTVDIGKVQTLTGIRNKCYASSYSPTAVEVFTSSDGAKWKSIGAVTISKSGTQYIKFSKAVETRYLKYYVKQGPNTVSLTEFDLYAK
glycan array binding signal (z-score) [1]: 0.857
glycan array binding signal (z-score) [2]: 0.632
glycan array binding signal (z-score) [3]: -0.725
glycan array binding signal (z-score) [4]: -0.217
glycan array binding signal (z-score) [5]: -0.132
glycan array binding signal (z-score) [6]: 0.326
glycan array binding signal (z-score) [7]: 0.44
glycan array binding signal (z-score) [8]: -0.81
glycan array binding signal (z-score) [9]: 0.427
glycan array binding signal (z-score) [10]: -0.328
glycan array binding signal (z-score) [11]: -0.067
glycan array binding signal (z-score) [12]: 0.308
glycan array binding signal (z-score) [13]: -0.258
glycan array binding signal (z-score) [14]: -0.785
glycan array binding signal (z-score) [15]: -0.185
glycan array binding signal (z-score) [16]: 0.234
glycan array binding signal (z-score) [17]: 0.06
glycan array binding signal (z-score) [18]: 0.75
glycan array binding signal (z-score) [19]: 0.154
glycan array binding signal (z-score) [20]: 0.471
glycan array binding signal (z-score) [21]: -0.406
glycan array binding signal (z-score) [22]: 0.161
glycan array binding signal (z-score) [23]: -0.592
glycan array binding signal (z-score) [24]: 0.236
glycan array binding signal (z-score) [25]: -0.562
glycan array binding signal (z-score) [26]: -0.278
glycan array binding signal (z-score) [27]: -0.457
glycan array binding signal (z-score) [28]: 0.96
glycan array binding signal (z-score) [29]: -0.057
glycan array binding signal (z-score) [30]: 0.533
glycan array binding signal (z-score) [31]: -0.17
glycan array binding signal (z-score) [32]: -0.413
glycan array binding signal (z-score) [33]: 0.201
glycan array binding signal (z-score) [34]: -0.599
glycan array binding signal (z-score) [35]: 0.36
glycan array binding signal (z-score) [36]: 0.344
glycan array binding signal (z-score) [37]: -0.119
glycan array binding signal (z-score) [38]: 0.818
